# Data reported in PubChem BioAssay AID1468 (National Center for Advancing Translational Sciences (NCATS), 2008).
# “And” between values parts separate entries of the source, which are not always exact repeats. Equal entries are not always repeated. Out of some 280,000 compounds screened, about 1,100 (0.39%) were called active. This list was built around the results that the source calls inconclusive (neither active nor inactive); the mix of calls is not that of the screen. Calls come from the whole dose curve; as a rule, active = well fitted inhibition curve with a large enough effect; inconclusive = small, poorly fitted or top-dose-only effect, or effect the other way; inactive = flat fitted curve, though single readings scatter. No potency is given beside an inconclusive call; the fits are too rough.
# Target: Microtubule-associated protein tau (Homo sapiens) (UniProt P10636)
# Chain of UniProt P10636 (P10636 whole entry, looked up): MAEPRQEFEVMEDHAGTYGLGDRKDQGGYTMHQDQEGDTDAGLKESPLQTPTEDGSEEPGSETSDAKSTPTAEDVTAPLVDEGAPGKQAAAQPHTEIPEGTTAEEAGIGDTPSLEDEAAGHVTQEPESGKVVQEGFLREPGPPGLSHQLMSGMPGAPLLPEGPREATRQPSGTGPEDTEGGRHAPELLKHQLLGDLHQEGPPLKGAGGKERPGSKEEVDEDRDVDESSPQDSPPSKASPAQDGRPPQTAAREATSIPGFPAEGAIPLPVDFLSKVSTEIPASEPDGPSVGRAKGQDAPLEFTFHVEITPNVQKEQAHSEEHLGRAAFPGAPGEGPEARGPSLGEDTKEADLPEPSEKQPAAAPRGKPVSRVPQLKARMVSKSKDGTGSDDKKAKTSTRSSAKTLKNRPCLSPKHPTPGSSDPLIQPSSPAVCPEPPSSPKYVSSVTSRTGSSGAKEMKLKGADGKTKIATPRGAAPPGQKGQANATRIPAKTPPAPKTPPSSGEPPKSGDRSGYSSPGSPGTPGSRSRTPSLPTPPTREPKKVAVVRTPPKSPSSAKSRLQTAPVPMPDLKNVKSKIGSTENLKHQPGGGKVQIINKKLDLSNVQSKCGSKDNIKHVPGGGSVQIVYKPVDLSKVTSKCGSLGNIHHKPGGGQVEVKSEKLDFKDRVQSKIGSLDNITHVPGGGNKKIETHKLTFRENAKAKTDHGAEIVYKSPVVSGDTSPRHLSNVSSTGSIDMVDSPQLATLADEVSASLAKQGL
# Experiment: qHTS for Inhibitors of Tau Fibril Formation, Fluorescence Polarization; note: nearly all actives have a fitted effect of over 55% in size
# Conditions: K18 P301L tau heparin fibrillization, Alexa594 FP, 6 h; series mostly up to 57.7 µM; activity, negative = inhibition: at the top concentration
# In short: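 FP of Alexa 594-tau after heparin (20 uM) induction. Substrate: human K18 P301L, 15 uM unlabeled, 0.24 uM labeled. Buffer 100 mM sodium acetate pH 7. 6 hr, 37 C.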
# % is set by controls: 0 for no effect and ±100 for the full control effect; potency is the fitted concentration of half-maximal effect; tags give direction and shape of the fitted curve.
Compound,"activity, negative = inhibition",Potency
Cc1ccc(NC(=O)CSc2nnc(CN3CCOCC3)n2-c2ccccc2)cc1,inactive: -6.05%,
CC(C)n1c(O)c(/C=C2\C=NN=C2c2ccccc2)sc1=S,,active: 14.1 µM
CCN(CC)CCOC(=O)c1ccc(NC(=O)Cn2ncc3c([nH]c4ccc(C)cc43)c2=O)cc1,,"inconclusive [inhibitor, single point]"
Cc1ccccc1CS(=O)(=O)CC1Nc2ccc(C(=O)NCc3ccc(Cl)cc3)cc2NC1=O (centres undefined),,"inconclusive [inhibitor, partial curve]"
O=S(=O)(NCc1ccccc1)c1ccc(S(=O)(=O)N(Cc2ccccn2)Cc2ccco2)cc1,inactive: 0.67%,
CCOc1cc(C(=O)N2CC(=O)Nc3ccc(C)cc3C2c2ccccc2)cc(OCC)c1OCC (centres undefined),inactive: 4.11%,
Cc1nnc(SCc2ccccc2)c2cc3sccc3n12,,"inconclusive [inhibitor, partial curve]"
Fc1cccc(NC(=S)NNc2c3ccccc3nc3ccccc23)c1,inactive: -16.8%,
COC(=O)c1cc(NC(=O)CN(c2cccc(OC)c2)S(=O)(=O)c2ccccc2)ccc1Cl,,"inconclusive [inhibitor, partial curve]"
COC(=O)c1cccnc1,inactive: 0.284%,
O=C(O)CCc1ccc(-c2cccs2)o1,,"inconclusive [inhibitor, single point]"
COc1ccc(N2C(=O)C(Cl)=C(Nc3ccccc3OC)C2=O)cc1,,"inconclusive [inhibitor, partial curve]"
CCN(CC)c1nc(SCCOC(=O)Nc2ccccc2)nc(N(CC)CC)n1,,"inconclusive [inhibitor, single point]"
C/C(=N\NC(=O)CSCc1ccccc1Cl)c1cccc(NC(=O)c2ccccc2)c1,,"inconclusive [inhibitor, partial curve]"
Fc1ccc2nc(Nc3nc4c(F)cc(F)cc4s3)sc2c1,inactive: -17.5%,
Cc1cccc2sc(NNC(=O)c3ccc4c(c3)OCCO4)nc12,inactive: -3.62%,
Cc1cc(OCC(=O)O/N=C(\N)c2ccccc2)cc(C)c1Cl,,"inconclusive [inhibitor, partial curve, poor fit]"
Cc1cc(C)nc(SCc2cc(=O)c(OC(=O)c3ccc(S(=O)(=O)N4CCCC4)cc3)co2)n1,inactive: 17.5%,
COc1ccccc1CNC(=O)c1ccc2c(c1)N(Cc1cccc(C)c1)C(=O)c1ccccc1S2(=O)=O,,"inconclusive [inhibitor, partial curve]"
COc1ccc2oc(=O)c(C(=O)NCc3ccc4c(c3)OCO4)cc2c1,,"inconclusive [inhibitor, single point]"
Cc1ccc(C)c(Cn2c3ccccc3c3cnn(CC(=O)NCCC4=CCCCC4)c(=O)c32)c1,,"inconclusive [inhibitor, full curve, poor fit]"
O=C(COC(=O)CCc1nc2ccccc2n1-c1ccccc1)Nc1cccc(Cl)c1,,"inconclusive [inhibitor, partial curve, poor fit]"
COc1ccc(F)cc1S(=O)(=O)NCCc1c(C)[nH]c2c(Cl)cccc12,inactive: 8.48%,

Compound,"activity, negative = inhibition",Potency
Cn1nc(C(=O)Nc2nc3ccccc3[nH]2)c2ccccc2c1=O,inactive: -3.59%,
O=C(Nc1ccccc1Cl)c1cc(S(=O)(=O)N2CCC3(CC2)OCCO3)ccc1F,,"inconclusive [inhibitor, single point]"
COCCCNc1nc2nonc2nc1N(C)CC1CCCN1C (centres undefined),inactive: -1.65%,
O=C1C(Nc2ccccc2)=C2CCCC=C2N1c1ccccc1,inactive: -6.95%,
COc1cccc2[nH]c3c(=O)n(CCN(C)C)cnc3c12,inactive: -1.9%,
CCOc1ccc(N(CC)S(=O)(=O)N2CCCC(C(=O)Nc3ccc(OC)c(OC)c3)C2)cc1 (centres undefined),,"inconclusive [activator, single point]"
C[C@H](Nc1ncnc2sc3c(c12)CCC3)C(=O)O,inactive: -2.51%,
COc1cc(NC(=O)c2ccc(-c3nc(COc4ccccc4)c(C)o3)cc2)cc(OC)c1,,"inconclusive [inhibitor, partial curve]"
O=C(OCn1nnc2ccccc2c1=O)c1cc(-c2ccccc2)nc2ccccc12,,"inconclusive [inhibitor, partial curve]"
Cc1ccccc1-c1nc2cc(NC(=O)c3cccc(OCCC(C)C)c3)ccc2o1,,"inconclusive [inhibitor, full curve]"
COc1ccc2nc(C)cc(SCC(=O)N3CCCCC3)c2c1,,"inconclusive [inhibitor, full curve, poor fit]"
Cc1nc2ccccc2nc1N/N=C/c1ccc(O)cc1O,,"inconclusive [activator, single point]"
Cc1nc(SCC(=O)O)c(C#N)c(-c2ccco2)c1C(=O)N(C)C,inactive: 4.67%,
CCOc1ccc(OCC)c(NC(=O)c2cc(CN3CCOCC3)on2)c1,,"inconclusive [inhibitor, single point]"
CCN1C(=O)c2cccc3c(S(=O)(=O)NCc4ccco4)ccc1c23,inactive: -8.13%,
CCOC(=O)c1ccc(NC(=O)Nc2ccc3c4c(cccc24)C(=O)N3CC)cc1,inactive: -13.1%,
CC(=O)C1=C(c2ccc(Cl)c(Cl)c2)N(C(C)=O)n2c(nnc2C2CCCCC2)S1,,"inconclusive [inhibitor, partial curve]"
CC1CCN(S(=O)(=O)c2ccc3c(c2)oc(=O)n3CC(=O)NC(C)c2ccccc2)CC1 (centres undefined),,"inconclusive [inhibitor, partial curve, poor fit]"
CCN1C(=O)[C@H]2[C@@H]3[C@H](O)[C@H](O)CC(=O)[C@H]3CC[C@H]2C1=O,inactive: 1.62% [at 11.6 µM] and inactive: -2.58% [at 11.6 µM],
Cc1ccc(-n2ncc(C(=O)Nc3ccc4c(c3)OCCO4)c2C2CCN(C(=O)OC(C)(C)C)CC2)cc1,,"inconclusive [activator, single point]"
Cc1ccc(/C=N/NC(=O)c2ccccn2)o1,inactive: 4.15%,
Cc1ccc(C(=O)CCNc2ccc(F)c(Cl)c2)o1,,"inconclusive [activator, full curve, poor fit]"
COc1ccc2c(c1OC)C(=O)OC2CC(=O)c1ccc(N(C)C)cc1 (centres undefined),inactive: 3.14%,

Compound,"activity, negative = inhibition",Potency
O=C(Nc1cc(Cl)ccn1)C1(c2ccccc2)CC1(Cl)Cl (centres undefined),,"inconclusive [inhibitor, single point]"
CC1(c2ccc(OC(F)F)cc2)NC(=O)N(/N=C/c2c(O)ccc3ccccc23)C1=O (centres undefined),,"inconclusive [inhibitor, partial curve, poor fit]"
CCC(C)NC(=S)N1CCN(Cc2ccc3c(c2)OCO3)CC1 (centres undefined),inactive: -3.8%,
CC(=O)N1CCN(C(=S)c2ccc([N+](=O)[O-])cc2)CC1,inactive: -1.35%,
CCCCCC(=O)NC(=S)Nc1ccc(N2CCOCC2)cc1,,"inconclusive [activator, single point]"
CC(=O)NC(=S)c1c(N)n(Cc2ccccc2)c(=O)n(C)c1=O,inactive: -11.6%,
CC(C)C(NC(=O)OCc1ccccc1)C(=O)NC1CCCCC1 (centres undefined),inactive: -2.07%,
Cc1ccc(-c2cc(-c3ccc4c(c3)NC(=O)CO4)nc3c2COc2ccccc2-3)cc1,,"inconclusive [inhibitor, partial curve, poor fit]"
N#C/C(=C\c1ccc(-c2cccc([N+](=O)[O-])c2)o1)c1nnc(N2CCOCC2)n1-c1ccccc1,inactive: 4.7%,
COC(=O)C1=C(C)N(CC(C)C)C(=O)/C1=C\c1cccs1,,"inconclusive [inhibitor, single point]"
CCOC(=O)C1=C(C)N=c2s/c(=C3\C(=O)Nc4ccccc43)c(=O)n2C1c1ccc2c(c1)OCO2 (centres undefined),,"inconclusive [inhibitor, single point]"
CCOC(=O)c1sc2nc(N3CCCC3)c3c(c2c1N)CC(C)(C)OC3,,"inconclusive [activator, single point]"
Cc1ccccc1/C=N/NC(=O)c1sccc1C,inactive: -2.91%,
CCN(CC)CCCNC(=O)c1ccc2c(=O)n(Cc3ccc4c(c3)OCO4)c(=S)[nH]c2c1,,"inconclusive [inhibitor, single point]"
Cc1nnc(NC(=O)CSc2nc3c([nH]c4ccccc43)c(=O)n2-c2ccc(Cl)cc2)s1,,"inconclusive [inhibitor, partial curve, poor fit]"
O=C(Nc1ccccc1)c1ccc(-c2ccc(Br)cc2)o1,,"inconclusive [inhibitor, partial curve]"
Cc1cc(C)c(S(=O)(=O)Nc2cc(SCC(=O)O)c(O)c3ccccc23)cc1C,,active: 25.1 µM
Cc1cc(OCC(=O)Nc2ccc(C(=O)OC3CCCCC3)cc2)cc(C)c1Cl,,"inconclusive [inhibitor, partial curve]"
COc1ccc(N2CCN(C(c3cccs3)C(C)NS(=O)(=O)c3ccccc3)CC2)cc1 (centres undefined),,"inconclusive [activator, partial curve]"
O=C(CSc1ncnc2nc[nH]c12)Nc1nnc(SCc2ccc(Cl)c(Cl)c2)s1,,"inconclusive [inhibitor, partial curve]"
COc1cccc(CNC(=O)c2ccc3nc(N4CCCCC4)sc3c2)c1OC,,"inconclusive [inhibitor, single point]"
COc1ccccc1NC(=O)c1cc(S(=O)(=O)NCCc2ccccc2)ccc1F,,"inconclusive [inhibitor, partial curve]"
O=S(=O)(Nc1ccc2nc(-c3ccc(F)cc3)oc2c1)c1ccccc1,,"inconclusive [inhibitor, partial curve]"
